From the antibiotic and cytotoxicity screens of Wong et al. (2023) come the findings set out here.

One test has as its system HSkMC. The test can be described thus: cytotoxicity call (relative viability < 0.9). Conditions: 10 µM.
In the next test the test system is HepG2. In words: cytotoxicity call (relative viability < 0.9). Conditions: 10 µM.
The next test has as its system S. aureus RN4220. In words: growth inhibition call (relative growth <= 0.2). Conditions: 50 µM.

Some of the results follow.

As to `CCSc1nnc2c(=O)[nH]c(=O)[nH]c2n1`, the cytotoxicity call in the test with HSkMC and in the test on HepG2 was “inactive” throughout. Also, in the test on S. aureus RN4220, the growth inhibition call was “inactive”.
For `CCOC[C@]12Cc3cnn(-c4ccc(F)cc4)c3C=C1CCN(S(=O)(=O)c1ccc(C(F)(F)F)cc1)C2`, the cytotoxicity call in the test with HSkMC and in the test with HepG2 was “inactive” each time. Moreover, the growth inhibition call with S. aureus RN4220 was “inactive”.
In the case of `Cn1c(=O)[nH]c(=O)c2c1nc(N1CCN(CCO)CC1)n2CCC#N`, the cytotoxicity call in the test with HSkMC and in the test on HepG2 was “inactive” each time. Besides, in the test on S. aureus RN4220, the growth inhibition call is “inactive”.
In the case of `C[C@H](CO)N1C[C@H](C)[C@@H](CN(C)Cc2ccc(C(=O)O)cc2)Oc2c(NC(=O)C3CC3)cccc2C1=O`, the cytotoxicity call in the test on HSkMC and in the test with HepG2 was “inactive” throughout. The growth inhibition call in the test with S. aureus RN4220 is “inactive”.
Take `C[C@@H]1CN([C@H](C)CO)C(=O)c2cccc(NC(=O)Nc3ccc(C(F)(F)F)cc3)c2O[C@H]1CN(C)C(=O)Nc1ccc2c(c1)OCO2`: the cytotoxicity call in the test on HSkMC and in the test on HepG2 was “inactive” each time. Moreover, the growth inhibition call with S. aureus RN4220 was “inactive”.
For `COc1cccc(S(=O)(=O)N[C@H]2CC[C@@H](CCn3cc(-c4ccccc4OC)nn3)O[C@H]2CO)c1`, the cytotoxicity call in the test on HSkMC and in the test on HepG2 was “inactive” throughout. In the test on S. aureus RN4220, the growth inhibition call was “inactive”.
`C=C1C[C@]23CC[C@@H]4[C@@](C)(CCC[C@@]4(C)C(=O)O)[C@H]2CC[C@H]1C3`: the cytotoxicity call with HSkMC is “inactive”. Besides, the cytotoxicity call in the test with HepG2 is “active”. The growth inhibition call in the test with S. aureus RN4220 was “active”.
In the case of `COc1ccc(S(=O)(=O)Nc2ccc3c(c2)C(=O)N([C@H](C)CO)C[C@@H](C)[C@H](CN(C)Cc2ccc(Cl)c(Cl)c2)OCCCC[C@@H](C)O3)cc1`, in the test on HSkMC, the cytotoxicity call is “inactive”. Also, the cytotoxicity call in the test with HepG2 was “active”. In addition, the growth inhibition call with S. aureus RN4220 is “inactive”.
For the molecule `C[C@H](CO)N1C[C@H](C)[C@H](CN(C)Cc2ccc(C(=O)O)cc2)OCCCC[C@H](C)Oc2ccc(NC(=O)CCC(F)(F)F)cc2C1=O`, the cytotoxicity call in the test on HSkMC and in the test on HepG2 was “inactive” throughout. Further, the growth inhibition call in the test with S. aureus RN4220 is “inactive”.
As to `Cc1ccc(S(=O)(=O)N2C[C@@H](O)COC[C@@H]3O[C@H](CC(=O)NCc4ccc5c(c4)OCO5)CC[C@H]32)cc1`, the cytotoxicity call with HSkMC and in the test on HepG2 was “inactive” each time. For the same molecule, the growth inhibition call in the test on S. aureus RN4220 is “inactive”.
Take `C[C@@H]1CCCCO[C@@H](CN(C)S(=O)(=O)c2ccccc2)[C@@H](C)CN([C@@H](C)CO)C(=O)c2cc(NC(=O)c3ccccc3)ccc2O1`: the cytotoxicity call in the test on HSkMC and in the test on HepG2 was “inactive” throughout. Besides, in the test on S. aureus RN4220, the growth inhibition call is “inactive”.
`O=C(O)c1cc2cc(F)ccc2s1`: the cytotoxicity call in the test with HSkMC and in the test on HepG2 was “inactive” in each case. Also, the growth inhibition call in the test with S. aureus RN4220 was “inactive”.
`Cc1noc(C)c1S(=O)(=O)N(C)C[C@H]1Oc2ccc(NS(C)(=O)=O)cc2CC(=O)N([C@@H](C)CO)C[C@H]1C`: the cytotoxicity call in the test with HSkMC and in the test with HepG2 was “inactive” each time. For the same molecule, in the test with S. aureus RN4220, the growth inhibition call is “inactive”.
In the case of `COc1cccc(-c2ccc3c(c2)O[C@H](CN(C)C(=O)C2CCOCC2)[C@H](C)CN([C@@H](C)CO)S3(=O)=O)c1`, the cytotoxicity call in the test on HSkMC and in the test on HepG2 was “inactive” each time. The growth inhibition call in the test on S. aureus RN4220 was “inactive”.
Consider `COc1ccc(S(=O)(=O)N(C)C[C@H]2Oc3c(cccc3N(C)C)C(=O)N([C@@H](C)CO)C[C@@H]2C)cc1`, for which the cytotoxicity call in the test with HSkMC and with HepG2 was “inactive” in each case. For the same molecule, in the test with S. aureus RN4220, the growth inhibition call is “inactive”.
For `C[C@H](CO)N1C[C@H](C)[C@H](CN(C)S(=O)(=O)c2ccccc2)Oc2ccc(NS(C)(=O)=O)cc2CC1=O`, the cytotoxicity call with HSkMC and in the test with HepG2 was “inactive” throughout. For the same molecule, the growth inhibition call in the test with S. aureus RN4220 is “inactive”.
With `Cc1noc(C)c1NC(=O)N(C)C[C@@H]1Oc2ncc(Br)cc2C(=O)N([C@H](C)CO)C[C@@H]1C`, the cytotoxicity call in the test on HSkMC and in the test on HepG2 was “inactive” throughout. Also, the growth inhibition call in the test on S. aureus RN4220 was “inactive”.
Consider `CCS(=O)(=O)NCC[C@H]1CC[C@H](NC(=O)C2CC2)[C@@H](CO)O1`, for which the cytotoxicity call in the test on HSkMC and in the test with HepG2 was “inactive” each time. Moreover, in the test with S. aureus RN4220, the growth inhibition call is “inactive”.
For `CO[C@@H]1CN(C)C(=O)c2ccc(NS(C)(=O)=O)cc2OC[C@H](C)N(C(=O)C2CCCCC2)C[C@H]1C`, the cytotoxicity call with HSkMC and in the test with HepG2 was “inactive” each time. The growth inhibition call in the test on S. aureus RN4220 was “inactive”.
As for `C[N+](C)(C)CCOC(N)=O.[Cl-]`, the cytotoxicity call in the test on HSkMC and in the test on HepG2 was “inactive” throughout. Further, in the test on S. aureus RN4220, the growth inhibition call was “inactive”.
Regarding `C[C@H]1CN([C@@H](C)CO)C(=O)c2cccc(NC(=O)Nc3ccccc3)c2O[C@H]1CN(C)Cc1ccc(C(=O)Nc2ccccc2N)cc1`, the cytotoxicity call in the test with HSkMC and in the test with HepG2 was “active” throughout. Besides, the growth inhibition call in the test on S. aureus RN4220 is “inactive”.
Turning to `CCCC#Cc1ccc2c(c1)O[C@@H](CN(C)Cc1ccc3c(c1)OCO3)[C@@H](C)CN([C@H](C)CO)S2(=O)=O`, the cytotoxicity call in the test on HSkMC and in the test with HepG2 was “inactive” throughout. Moreover, the growth inhibition call in the test with S. aureus RN4220 was “inactive”.
In the case of `O=C(C1=C[C@@H](c2ccc3c(c2)OCO3)C[C@@H](OCCCCO)O1)N1CCN(Cc2ccc3c(c2)OCO3)CC1`, the cytotoxicity call in the test on HSkMC and in the test on HepG2 was “inactive” throughout. In the test on S. aureus RN4220, the growth inhibition call is “inactive”.
For `C[C@H](CO)N1C[C@H](C)[C@@H](CN(C)S(=O)(=O)c2ccc(Cl)cc2)Oc2ccc(NC(=O)CCN3CCOCC3)cc2C1=O`, the cytotoxicity call in the test with HSkMC and in the test with HepG2 was “inactive” each time. Besides, the growth inhibition call with S. aureus RN4220 was “inactive”.
`CC(C)NC(=O)N[C@H]1C=C[C@H](CC(=O)O)O[C@H]1CO`: the cytotoxicity call with HSkMC and in the test on HepG2 was “inactive” each time. In addition, the growth inhibition call in the test with S. aureus RN4220 is “inactive”.
Turning to `COc1ccc(C2CNC(=O)C2)cc1OC1CCCC1` (centres undefined), the cytotoxicity call in the test on HSkMC and in the test with HepG2 was “inactive” in each case. Also, the growth inhibition call with S. aureus RN4220 is “inactive”.
`COc1ccc(NC(=O)N2C[C@H](O)COC[C@@H]3O[C@@H](CC(=O)NC4Cc5ccccc5C4)CC[C@H]32)cc1`: the cytotoxicity call in the test with HSkMC and in the test with HepG2 was “inactive” in each case. The growth inhibition call in the test with S. aureus RN4220 was “inactive”.
For `O=c1ccn(C2OC(CO)C(O)C2O)c(=O)[nH]1` (centres undefined), the cytotoxicity call in the test on HSkMC (human skeletal muscle cells) and with HepG2 was “inactive” in each case. In the test with S. aureus RN4220, the growth inhibition call was “inactive”.
